Laboratory results taken from the supplement of paper PMC8728848.
The other results are listed elsewhere or left out.

Key:
Test in all cases: glycan array binding signal (z-score within array); higher = stronger binding
Conditions in all cases: glycan notation: IUPAC condensed, linker removed
[1] = target: Gal(b1-3)GalNAc(a1-3)[Fuc(a1-2)]Gal(b1-4)GlcNAc
How it was run: (§1)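 The binding signal is a Z-score computed within each array and averaged over linkers. Arrays of the same protein sequence at different concentrations or buffers were also averaged together. Data originate from 3228 arrays in the Consortium for Functional Glycomics database, kept only where the protein sequence was available.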

[2] = target: Gal(b1-3)GalNAc(b1-3)Gal(a1-4)Gal(b1-4)Glc
How it was run: as §1

[3] = target: Gal(b1-3)GalNAc(b1-4)Gal(b1-4)Glc
How it was run: as §1

[4] = target: Gal(b1-3)GalNAc(b1-4)[Neu5Ac(a2-3)]Gal(b1-4)Glc
How it was run: as §1

[5] = target: Gal(b1-3)GlcNAc
How it was run: as §1

[6] = target: Gal(b1-3)GlcNAc(a1-6)Gal(b1-4)GlcNAc
How it was run: as §1

[7] = target: Gal(b1-3)GlcNAc(b1-2)Man(a1-3)[Gal(b1-3)GlcNAc(b1-2)Man(a1-6)]Man(b1-4)GlcNAc(b1-4)GlcNAc
How it was run: as §1

[8] = target: Gal(b1-3)GlcNAc(b1-2)Man(a1-3)[Gal(b1-3)GlcNAc(b1-2)Man(a1-6)]Man(b1-4)GlcNAc(b1-4)[Fuc(a1-6)]GlcNAc
How it was run: as §1

[9] = target: Gal(b1-3)GlcNAc(b1-2)[Gal(b1-3)GlcNAc(b1-6)]Man(a1-6)[Gal(b1-3)GlcNAc(b1-2)Man(a1-3)]Man(b1-4)GlcNAc(b1-4)GlcNAc
How it was run: as §1

[10] = target: Gal(b1-3)GlcNAc(b1-3)Gal(b1-3)GlcNAc
How it was run: as §1

[11] = target: Gal(b1-3)GlcNAc(b1-3)Gal(b1-4)Glc
How it was run: as §1

[12] = target: Gal(b1-3)GlcNAc(b1-3)Gal(b1-4)GlcNAc
How it was run: as §1

[13] = target: Gal(b1-3)GlcNAc(b1-3)Gal(b1-4)GlcNAc(b1-6)[Gal(b1-3)GlcNAc(b1-3)]Gal(b1-4)Glc
How it was run: as §1

[14] = target: Gal(b1-3)GlcNAc(b1-3)Gal(b1-4)[Fuc(a1-3)]GlcNAc(b1-6)[Gal(b1-3)GlcNAc(b1-3)]Gal(b1-4)Glc
How it was run: as §1

[15] = target: Gal(b1-3)GlcNAc(b1-3)GalNAc
How it was run: as §1

[16] = target: Gal(b1-3)GlcNAc(b1-6)Gal(b1-4)GlcNAc
How it was run: as §1

[17] = target: Gal(b1-3)[Fuc(a1-4)]GlcNAc
How it was run: as §1

[18] = target: Gal(b1-3)[Fuc(a1-4)]GlcNAc(b1-2)Man(a1-3)[Gal(b1-3)[Fuc(a1-4)]GlcNAc(b1-2)Man(a1-6)]Man(b1-4)GlcNAc(b1-4)GlcNAc
How it was run: as §1

[19] = target: Gal(b1-3)[Fuc(a1-4)]GlcNAc(b1-2)Man(a1-3)[Gal(b1-3)[Fuc(a1-4)]GlcNAc(b1-2)Man(a1-6)]Man(b1-4)GlcNAc(b1-4)[Fuc(a1-6)]GlcNAc
How it was run: as §1

[20] = target: Gal(b1-3)[Fuc(a1-4)]GlcNAc(b1-3)Gal(b1-3)[Fuc(a1-4)]GlcNAc
How it was run: as §1

[21] = target: Gal(b1-3)[Fuc(a1-4)]GlcNAc(b1-3)Gal(b1-4)GlcNAc
How it was run: as §1

[22] = target: Gal(b1-3)[Fuc(a1-4)]GlcNAc(b1-3)Gal(b1-4)[Fuc(a1-3)]GlcNAc
How it was run: as §1

[23] = target: Gal(b1-3)[GlcNAc(b1-6)]GalNAc
How it was run: as §1

[24] = target: Gal(b1-3)[Neu5Ac(a2-6)]GalNAc
How it was run: as §1

[25] = target: Gal(b1-3)[Neu5Ac(a2-6)]GlcNAc(b1-6)Gal(b1-4)Glc
How it was run: as §1

[26] = target: Gal(b1-3)[Neu5Ac(b2-6)]GalNAc
How it was run: as §1

[27] = target: Gal(b1-4)Gal
How it was run: as §1

[28] = target: Gal(b1-4)GalNAc(a1-3)[Fuc(a1-2)]Gal(b1-4)GlcNAc
How it was run: as §1

[29] = target: Gal(b1-4)GalNAc(b1-3)[Fuc(a1-2)]Gal(b1-4)GlcNAc
How it was run: as §1

[30] = target: Gal(b1-4)Glc
How it was run: as §1

[31] = target: Gal(b1-4)Glc6S
How it was run: as §1

[32] = target: Gal(b1-4)GlcNAc
How it was run: as §1

[33] = target: Gal(b1-4)GlcNAc(a1-6)Gal(b1-4)GlcNAc
How it was run: as §1

[34] = target: Gal(b1-4)GlcNAc(b1-2)Man
How it was run: as §1

[35] = target: Gal(b1-4)GlcNAc(b1-2)Man(a1-3)Man(b1-4)GlcNAc(b1-4)GlcNAc
How it was run: as §1

[36] = target: Gal(b1-4)GlcNAc(b1-2)Man(a1-3)[Gal(b1-4)GlcNAc(b1-2)Man(a1-6)]Man(b1-4)GlcNAc(b1-4)GlcNAc
How it was run: as §1

[37] = target: Gal(b1-4)GlcNAc(b1-2)Man(a1-3)[Gal(b1-4)GlcNAc(b1-2)Man(a1-6)]Man(b1-4)GlcNAc(b1-4)[Fuc(a1-6)]GlcNAc
How it was run: as §1

[38] = target: Gal(b1-4)GlcNAc(b1-2)Man(a1-3)[Gal(b1-4)GlcNAc(b1-2)][GlcNAc(b1-4)]Man(b1-4)GlcNAc(b1-4)GlcNAc
How it was run: as §1

[39] = target: Gal(b1-4)GlcNAc(b1-2)Man(a1-3)[GlcNAc(b1-2)Man(a1-6)]Man(b1-4)GlcNAc(b1-4)GlcNAc
How it was run: as §1

[40] = target: Gal(b1-4)GlcNAc(b1-2)Man(a1-3)[Man(a1-6)]Man(b1-4)GlcNAc(b1-4)GlcNAc
How it was run: as §1

[41] = target: Gal(b1-4)GlcNAc(b1-2)Man(a1-6)Man(b1-4)GlcNAc(b1-4)GlcNAc
How it was run: as §1

[42] = target: Gal(b1-4)GlcNAc(b1-2)Man(a1-6)[GlcNAc(b1-2)Man(a1-3)]Man(b1-4)GlcNAc(b1-4)GlcNAc
How it was run: as §1

[43] = target: Gal(b1-4)GlcNAc(b1-2)Man(a1-6)[Man(a1-3)]Man(b1-4)GlcNAc(b1-4)GlcNAc
How it was run: as §1

[44] = target: Gal(b1-4)GlcNAc(b1-2)[Gal(b1-4)GlcNAc(b1-4)]Man(a1-3)[Gal(b1-4)GlcNAc(b1-2)Man(a1-6)]Man(b1-4)GlcNAc(b1-4)GlcNAc
How it was run: as §1

[45] = target: Gal(b1-4)GlcNAc(b1-2)[Gal(b1-4)GlcNAc(b1-4)]Man(a1-3)[Gal(b1-4)GlcNAc(b1-2)[Gal(b1-4)GlcNAc(b1-6)]Man(a1-6)]Man(b1-4)GlcNAc(b1-4)GlcNAc
How it was run: as §1

B1: BC2L-D C-terminal domain (Burkholderia cenocepacia), Q39MQ9_BURS3 (protein)
chain: LVIVDAVTLLSAYPEASRDPAAPTVIDGRHLYVVSPGDAAQLGHNDSRLFTGLSPGDQLHLRETALALRAEVSVLFIRFALKDAGIVAPIELEVRDAATAVPDADDLLHPSCRPLKDHYWRSDVLAAGATTCTADFAVCDRDGTVSGYFRWETSIEIAGSQPDTKQPGFKPSSDRNGNFSLPPNTAFKAIFYANAADRQDLKLFIDDAPEPAATFVGNSEDGVRLFTLNSKGGKIRIEASANGRQSATDARLAPLSAGDTVWLGWLGAEDGADADYNDGIVILQWPIT
- glycan array binding signal (z-score) [1]: -0.233
- glycan array binding signal (z-score) [2]: -0.238
- glycan array binding signal (z-score) [3]: -0.244
- glycan array binding signal (z-score) [4]: -0.242
- glycan array binding signal (z-score) [5]: -0.241
- glycan array binding signal (z-score) [6]: -0.158
- glycan array binding signal (z-score) [7]: 0.233
- glycan array binding signal (z-score) [8]: -0.128
- glycan array binding signal (z-score) [9]: 0.178
- glycan array binding signal (z-score) [10]: -0.242
- glycan array binding signal (z-score) [11]: -0.248
- glycan array binding signal (z-score) [12]: -0.241
- glycan array binding signal (z-score) [13]: -0.163
- glycan array binding signal (z-score) [14]: -0.162
- glycan array binding signal (z-score) [15]: -0.161
- glycan array binding signal (z-score) [16]: -0.156
- glycan array binding signal (z-score) [17]: 0.06
- glycan array binding signal (z-score) [18]: -0.037
- glycan array binding signal (z-score) [19]: 0.923
- glycan array binding signal (z-score) [20]: 0.54
- glycan array binding signal (z-score) [21]: -0.137
- glycan array binding signal (z-score) [22]: 0.345
- glycan array binding signal (z-score) [23]: -0.242
- glycan array binding signal (z-score) [24]: -0.243
- glycan array binding signal (z-score) [25]: -0.243
- glycan array binding signal (z-score) [26]: -0.242
- glycan array binding signal (z-score) [27]: -0.162
- glycan array binding signal (z-score) [28]: -0.242
- glycan array binding signal (z-score) [29]: -0.239
- glycan array binding signal (z-score) [30]: -0.241
- glycan array binding signal (z-score) [31]: -0.242
- glycan array binding signal (z-score) [32]: -0.218
- glycan array binding signal (z-score) [33]: -0.248
- glycan array binding signal (z-score) [34]: -0.157
- glycan array binding signal (z-score) [35]: -0.243
- glycan array binding signal (z-score) [36]: -0.232
- glycan array binding signal (z-score) [37]: -0.236
- glycan array binding signal (z-score) [38]: -0.166
- glycan array binding signal (z-score) [39]: -0.168
- glycan array binding signal (z-score) [40]: 0.676
- glycan array binding signal (z-score) [41]: -0.224
- glycan array binding signal (z-score) [42]: -0.17
- glycan array binding signal (z-score) [43]: 1.08
- glycan array binding signal (z-score) [44]: -0.218
- glycan array binding signal (z-score) [45]: -0.159
